Experimental data reported in patent US12421317B2, “Polynucleotides encoding anti-glucagon-like peptide 1 receptor (GLP1R) antagonist antibodies” (Regeneron Pharmaceuticals, Inc., priority 2020, dated 2025).
Marks after values point to notes of the source that are not given here.

Columns and labels:
[1] = target: T1, hGLP1R-MMH (N-terminal region of human GLP1R-MMH) (Homo sapiens, UniProt P43220); assay: SPR (Biacore 4000) binding of captured GLP1R mAbs to hGLP1R-MMH
T1 construct: the N-terminal region of human GLP1R-MMH (hGLP1R-MMH)
T1 sequence (P43220 with tags, fused parts or gaps): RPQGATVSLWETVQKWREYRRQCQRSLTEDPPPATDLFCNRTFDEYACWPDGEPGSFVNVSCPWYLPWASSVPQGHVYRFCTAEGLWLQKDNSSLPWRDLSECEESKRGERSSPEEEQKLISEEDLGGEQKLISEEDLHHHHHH
Procedure: (§1) The equilibrium dissociation constant (KD) for GLP1R binding to selected GLP1R monoclonal antibodies (mAbs) was determined using a real-time surface plasmon resonance biosensor using a Biacore 4000 instrument. All binding studies were performed in 10 mM HEPES, 150 mM NaCl, 3 mM EDTA, and 0.05% v/v Surfactant Tween-20, pH 7.4 (HBS-ET) running buffer at 25° C. and 37° C. The Biacore CM5 sensor chip surface was first derivatized by amine coupling with human Fc specific mouse mAb to capture different GLP1R mAbs. Different concentrations (100, 25, and 6.25 nM) of the N-terminal region of human GLP1R-MMH (hGLP1R-MMH; SEQ ID NO: 59), human GLP1R expressed with mouse IgG2a Fc (hGLP1R-mFc; SEQ ID NO: 63), an in-line fusion protein of human desA-GLP1 and GLP1R-MMH (hdesA-GLP1_GLP1R-MMH; SEQ ID NO: 62), Macaca fascicularis GLP1R-MMH (mfGLP1R-MMH; SEQ ID NO: 60) or 100 nM mouse GLP1R-MMH (mGLP1R-MMH; SEQ ID NO: 61) prepared in HBS-ET running buffer were injected over the GLP1R mAb captured surface for 150 sec at a flow rate of 30 μL/min and their dissociation in HBS-ET running buffer was monitored for 10 minutes. At the end of each cycle, the GLP1R mAb capture surface was regenerated using a 12 sec injection of 20 mM phosphoric acid.
(§2) The association rate (ka) and dissociation rate (Kd) were determined by fitting the real-time binding sensorgrams to a 1:1 binding model with mass transport limitation using Scrubber 2.0 c curve-fitting software. Binding dissociation equilibrium constant (KD) and dissociative half-life (t½) were calculated from the kinetic rates as: […]

[2] = target: T2, hGLP1R-mFc (human GLP1R expressed with mouse IgG2a Fc) (Homo sapiens, UniProt P43220); assay: SPR (Biacore 4000) binding of captured GLP1R mAbs to hGLP1R-mFc
T2 construct: human GLP1R expressed with mouse IgG2a Fc (hGLP1R-mFc)
T2 sequence (P43220 with tags, fused parts or gaps): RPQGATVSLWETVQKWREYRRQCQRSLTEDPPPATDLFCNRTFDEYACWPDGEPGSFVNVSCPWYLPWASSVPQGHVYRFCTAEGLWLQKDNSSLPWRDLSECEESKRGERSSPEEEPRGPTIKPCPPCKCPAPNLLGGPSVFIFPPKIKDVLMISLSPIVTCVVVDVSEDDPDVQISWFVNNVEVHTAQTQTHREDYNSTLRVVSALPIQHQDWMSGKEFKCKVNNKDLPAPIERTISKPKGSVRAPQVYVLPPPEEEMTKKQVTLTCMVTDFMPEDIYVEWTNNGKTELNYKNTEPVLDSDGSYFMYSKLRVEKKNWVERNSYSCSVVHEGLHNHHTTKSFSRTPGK
Procedure: as §1, §2

[3] = system: mfGLP1R-MMH (Macaca fascicularis GLP1R-MMH); assay: SPR (Biacore 4000) binding of captured GLP1R mAbs to mfGLP1R-MMH
Procedure: as §1, §2

[4] = target: T3, hdesA-GLP1_GLP1R-MMH (in-line fusion protein of human desA-GLP1 and GLP1R-MMH) (Homo sapiens, UniProt P43220); assay: SPR (Biacore 4000) binding of captured GLP1R mAbs to hdesA-GLP1_GLP1R-MMH
T3 construct: an in-line fusion protein of human desA-GLP1 and GLP1R-MMH (hdesA-GLP1_GLP1R-MMH)
T3 sequence (P43220 with tags, fused parts or gaps): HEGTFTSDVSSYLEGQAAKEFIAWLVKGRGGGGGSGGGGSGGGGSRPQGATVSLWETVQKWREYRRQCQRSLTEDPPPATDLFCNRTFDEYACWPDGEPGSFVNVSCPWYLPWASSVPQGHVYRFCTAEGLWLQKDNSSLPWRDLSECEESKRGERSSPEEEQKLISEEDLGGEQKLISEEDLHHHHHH
Procedure: as §1, §2

[5] = target: T4, mGLP1R-MMH (mouse GLP1R-MMH) (Mus musculus, UniProt O35659); assay: SPR (Biacore 4000) binding of captured GLP1R mAbs to mGLP1R-MMH
T4 construct: 100 nM mouse GLP1R-MMH (mGLP1R-MMH)
T4 sequence (O35659 with tags, fused parts or gaps): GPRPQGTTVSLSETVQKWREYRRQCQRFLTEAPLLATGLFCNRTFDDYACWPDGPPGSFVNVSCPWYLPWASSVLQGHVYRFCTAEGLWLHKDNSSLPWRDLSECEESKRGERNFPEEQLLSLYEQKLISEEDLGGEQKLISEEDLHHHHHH
Procedure: as §1, §2

GLP1R humanized mice = assay: Exendin-4 induced hypoglycemia in GLP1R humanized mice (Example 5); assay type: in vivo; conditions: for Blood glucose levels / Percent differences in blood glucose levels from Group 1: Exendin-4 challenge, antibody 25 mg/kg s.c. on Day 0, mean
Procedure: For the study, 35 mice were randomly divided into one group of fourteen mice and three groups of seven mice. On Day 0, the group of fourteen animals (later divided into Groups 1 and 2) were administered subcutaneously (s.c.) with a mIgG2 isotype control antibody (referred to as Isotype control, dose of 25 mg/kg), whereas the other three groups (n=7/group) were each administered s.c. (dose of 25 mg/kg) with mAb36986 (Group 3), mAb37639 (Group 4), or mAb37645 (Group 5). The next day (Day 1), the isotype control administered fourteen animals were randomly divided into two groups (Group 1 and 2) of seven mice each. At 0 minute on Day 1, animals in Group 1 were administered intraperitoneally (i.p.) with saline, whereas animals in Group 2 were administered i.p. with Exendin-4 (dose of 0.01 mg/kg). At the same time point, animals in Groups 3, 4, and 5 were administered i.p. with Exendin-4 (dose of 0.01 mg/kg). For all animals, blood glucose levels were measured with a handheld glucometer immediately before saline or Exendin-4 administration, and 15, 30, 60, and 120 minutes post administration. All animals remained in their assigned groups until the study completion on Day 67. The Exendin-4 challenge performed on Day 1 was repeated on Days 8, 22, 46, and 67. Mean±SEM of percent differences in blood glucose levels from Group 1 at each time point was calculated for each group and shown in Table 16. Statistical analyses were performed by two-way ANOVA followed by Bonferroni post-hoc tests, comparing Groups 2, 3, 4, and 5 to Group 1.

B1: mAb37645: fully human anti-GLP1R antagonist antibody; HCVR/LCVR SEQ ID NOs: 40/48; heavy/light chain 56/58 (antibody)
heavy: QVRLQQWGAGLLKPSETLSLTCAVYGGSFSGYFWSWIRQPPGKGLEWIGEINHGGNTNSNPSLKSRVTISVDTSKNQFSLKLSAVIAADTAVYYCARGQYRSGGGYWYFDLWGRGTLVTVSSASTKGPSVFPLAPCSRSTSESTAALGCLVKDYFPEPVTVSWNSGALTSGVHTFPAVLQSSGLYSLSSVVTVPSSSLGTKTYTCNVDHKPSNTKVDKRV[human IgG4 Fc with S228P (EU numbers) not printed]
light: EIVLTQSPGTLSLSPGERATLSCRASQSISSVHLAWYQQKPGQAPRLLIYGASSRATGIPDRFSGSGSETDFTLTVSRLEPDDFTMYYCQQYGSSPWTFGQGTKVEIKRTVAAPSVFIFPPSDEQLKSGTASVVCLLNNFYPREAKVQWKVDNALQSGNSQESVTEQDSKDSTYSLSSTLTLSKADYEKHKVYACEVTHQGLSSPVTKSFNRGEC
notes: fully human anti-GLP1R antagonist antibody; heavy/light chain 56/58
ka ([1]; 25° C.): 152000 M⁻¹ s⁻¹ | kd ([1]; 25° C.): 0.000866 s⁻¹ | ka ([1]; 37° C.): 195000 M⁻¹ s⁻¹ | kd ([1]; 37° C.): 0.00349 s⁻¹ | ka ([2]; 25° C.): 128000 M⁻¹ s⁻¹ | kd ([2]; 25° C.): 0.000183 s⁻¹ | ka ([2]; 37° C.): 251000 M⁻¹ s⁻¹ | kd ([2]; 37° C.): 0.00065 s⁻¹ | ka ([3]; 25° C.): 42200 M⁻¹ s⁻¹ | kd ([3]; 25° C.): 0.000826 s⁻¹ | ka ([3]; 37° C.): 69500 M⁻¹ s⁻¹ | kd ([3]; 37° C.): 0.00384 s⁻¹ | ka ([4]; 25° C.): 120000 M⁻¹ s⁻¹ | kd ([4]; 25° C.): 0.00052 s⁻¹ | ka ([4]; 37° C.): 139000 M⁻¹ s⁻¹ | kd ([4]; 37° C.): 0.00229 s⁻¹ | ka ([5]; 25° C.): 56900 M⁻¹ s⁻¹ | kd ([5]; 25° C.): 0.000617 s⁻¹ | ka ([5]; 37° C.): 83600 M⁻¹ s⁻¹ | kd ([5]; 37° C.): 0.00249 s⁻¹ | glucose normalizing effects during Exendin-4 challenges (GLP1R humanized mice; 25 mg/kg s.c. on Day 0, challenges on Days 1, 8, 22, 46, 67): did not exhibit glucose normalizing effects | Blood glucose levels (GLP1R humanized mice; Day 1, 0 min): 216 mg/dL | Blood glucose levels (GLP1R humanized mice; Day 1, 15 min): 195** mg/dL | Percent differences in blood glucose levels from Group 1 (GLP1R humanized mice; Day 1, 15 min): −24** % | Blood glucose levels (GLP1R humanized mice; Day 1, 30 min): 151**** mg/dL | Percent differences in blood glucose levels from Group 1 (GLP1R humanized mice; Day 1, 30 min): −41**** % | Blood glucose levels (GLP1R humanized mice; Day 1, 60 min): 140**** mg/dL | Percent differences in blood glucose levels from Group 1 (GLP1R humanized mice; Day 1, 60 min): −38**** % | Blood glucose levels (GLP1R humanized mice; Day 1, 120 min): 160** mg/dL | Percent differences in blood glucose levels from Group 1 (GLP1R humanized mice; Day 1, 120 min): −26** % | Blood glucose levels (GLP1R humanized mice; Day 8, 0 min): 204 mg/dL | Percent differences in blood glucose levels from Group 1 (GLP1R humanized mice; Day 8, 0 min): −4% | Blood glucose levels (GLP1R humanized mice; Day 8, 15 min): 182*** mg/dL | Percent differences in blood glucose levels from Group 1 (GLP1R humanized mice; Day 8, 15 min): −30** % | Blood glucose levels (GLP1R humanized mice; Day 8, 30 min): 158**** mg/dL | Percent differences in blood glucose levels from Group 1 (GLP1R humanized mice; Day 8, 30 min): −36*** % | Blood glucose levels (GLP1R humanized mice; Day 8, 60 min): 146**** mg/dL | Percent differences in blood glucose levels from Group 1 (GLP1R humanized mice; Day 8, 60 min): −40**** % | Blood glucose levels (GLP1R humanized mice; Day 8, 120 min): 182 mg/dL | Percent differences in blood glucose levels from Group 1 (GLP1R humanized mice; Day 8, 120 min): −13% | Blood glucose levels (GLP1R humanized mice; Day 22, 0 min): 192 mg/dL | Percent differences in blood glucose levels from Group 1 (GLP1R humanized mice; Day 22, 0 min): −8% | Blood glucose levels (GLP1R humanized mice; Day 22, 15 min): 149**** mg/dL | Percent differences in blood glucose levels from Group 1 (GLP1R humanized mice; Day 22, 15 min): −44**** % | Blood glucose levels (GLP1R humanized mice; Day 22, 30 min): 121**** mg/dL | Percent differences in blood glucose levels from Group 1 (GLP1R humanized mice; Day 22, 30 min): −52**** % | Blood glucose levels (GLP1R humanized mice; Day 22, 60 min): 139**** mg/dL | Percent differences in blood glucose levels from Group 1 (GLP1R humanized mice; Day 22, 60 min): −42**** % | Blood glucose levels (GLP1R humanized mice; Day 22, 120 min): 167 mg/dL | Percent differences in blood glucose levels from Group 1 (GLP1R humanized mice; Day 22, 120 min): −20* % | Blood glucose levels (GLP1R humanized mice; Day 46, 0 min): 184 mg/dL | Percent differences in blood glucose levels from Group 1 (GLP1R humanized mice; Day 46, 0 min): 1% | Blood glucose levels (GLP1R humanized mice; Day 46, 15 min): 167*** mg/dL | Percent differences in blood glucose levels from Group 1 (GLP1R humanized mice; Day 46, 15 min): −32** % | Blood glucose levels (GLP1R humanized mice; Day 46, 30 min): 138**** mg/dL | Percent differences in blood glucose levels from Group 1 (GLP1R humanized mice; Day 46, 30 min): −45*** % | Blood glucose levels (GLP1R humanized mice; Day 46, 60 min): 144**** mg/dL | Percent differences in blood glucose levels from Group 1 (GLP1R humanized mice; Day 46, 60 min): −36** % | Blood glucose levels (GLP1R humanized mice; Day 46, 120 min): 184 mg/dL | Percent differences in blood glucose levels from Group 1 (GLP1R humanized mice; Day 46, 120 min): −1% | Blood glucose levels (GLP1R humanized mice; Day 67, 0 min): 195 mg/dL | Percent differences in blood glucose levels from Group 1 (GLP1R humanized mice; Day 67, 0 min): 0% | Blood glucose levels (GLP1R humanized mice; Day 67, 15 min): 153**** mg/dL | Percent differences in blood glucose levels from Group 1 (GLP1R humanized mice; Day 67, 15 min): −42*** % | Blood glucose levels (GLP1R humanized mice; Day 67, 30 min): 144**** mg/dL | Percent differences in blood glucose levels from Group 1 (GLP1R humanized mice; Day 67, 30 min): −45*** % | Blood glucose levels (GLP1R humanized mice; Day 67, 60 min): 144**** mg/dL | Percent differences in blood glucose levels from Group 1 (GLP1R humanized mice; Day 67, 60 min): −39** % | Blood glucose levels (GLP1R humanized mice; Day 67, 120 min): 168* mg/dL | Percent differences in blood glucose levels from Group 1 (GLP1R humanized mice; Day 67, 120 min): −26%
